Reference: PubChem BioAssay (Tox21)
“And” between values parts separate entries of the source, which are not always exact repeats. Equal entries are not always repeated. The inconclusive results got no clear call from the source; some entries with a clear call stand among them for comparison. For some assays here: Potencies beside an inconclusive call are fits to weak or partial responses and may not hold up. The source made the active and inactive calls. Unless noted, calls come from the whole dose curve; as a rule, active = well fitted curve in the direction sought with a large enough effect in the repeat runs; inconclusive = weak or mixed curves; inactive = no such curve, though single readings can be large; an effect the other way counts as inactive or inconclusive.

Columns and labels:
[1] = qHTS assay to identify small molecule antagonists of the androgen receptor (AR) signaling pathway using the MDA cell line in the presence of 0.5 nM R1881 - cell viability counter screen (AID 1259242); note: nearly all actives have a fitted effect of over 45% in size
Outline: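 Live-cell protease fluorescence, CellTiter-Fluor, 30 min at 37C. Cells: MDA-kb2, 3,000/well, preincubated 5 hr. Compounds plus 0.5 nM R1881 final, 16 hr, 37C, 0% CO2.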

[2] = qHTS assay to identify small molecule phospholipidosis (PLD) inducers (AID 1259344; active = well fitted curve in the direction sought with a large enough effect; inconclusive = small, poorly fitted or top-dose-only effect, or another doubt; inactive = no such curve, though single readings can be large; an effect the other way counts as inactive or inconclusive)
Outline: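 Phospholipid accumulation was scored by imaging: fixed, Hoechst-counterstained HepG2 cells stained with LipidTOX Red after 24 h compound exposure at 37 C. Read-outs were pit count and pit intensity per well or per cell, with amiodarone and DMSO controls.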

[3] = qHTS assay to identify small molecule HDAC inhibitors - cell viability counter screen (AID 1259365); note: nearly all actives have a fitted effect of over 50% in size
Outline: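 After overnight seeding at 1,500 cells per well, wild-type HCT-116 cultures took up compounds in DMSO for 2hr at 37 C. Viable cell content came from luminescence with CellTiter-Glo.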

[4] = qHTS assay to identify small molecule antagonists of the sonic hedgehog signaling (Shh) pathway - cell viability counter screen (AID 1259367); note: nearly all actives have a fitted effect of over 55% in size
Outline: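 Viability was read by CellTiter-Fluor fluorescence in the same wells, reagent added 23 hr into compound treatment and incubated 1 hr at 37C. The 3T3 Gli1-Luc reporter cells (2,000/well) received conditioned medium after compound and ran 24 hr.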

[5] = molecular target: Estrogen receptor beta (Homo sapiens) (UniProt Q92731); test: qHTS assay to identify small molecule agonists of the estrogen receptor beta (ER-beta) signaling pathway (AID 1259377; active = well fitted activation curve with a large enough effect in the signal ratio in the repeat runs, not every such curve was filed as active; inconclusive = weak or mixed curves, or effect the other way; the % refers to the signal ratio; for activation: % is set by controls: 0 for no effect and ±100 for the full control effect); conditions: ER-beta-UAS-bla HEK293T, beta-lactamase FRET ratio, 16 h; activation: at 92.4 µM (top of the series) unless noted
Outline: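 Read-out: beta-lactamase FRET fluorescence. Cell line: ER-beta-UAS-bla HEK293T in 2% charcoal-stripped FBS. Exposure: 16 hr at 37C. Substrate step: 2 h at room temperature.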

[6] = molecular target: Estrogen receptor beta (Homo sapiens) (UniProt Q92731); test: qHTS assay to identify small molecule antagonists of the estrogen receptor beta (ER-beta) signaling pathway (AID 1259378; active = well fitted inhibition curve with a large enough effect in the signal ratio in the repeat runs, not every such curve was filed as active; inconclusive = weak or mixed curves, or effect the other way; inactive = no such curve, though single readings can be large or run the other way; the % refers to the signal ratio); conditions: ER-beta-UAS-bla HEK293T, beta-lactamase FRET ratio, 16 h; activity, negative = inhibition: at 92.4 µM (top of the series) unless noted
Outline: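 Antagonist mode: compounds added to beta-lactamase reporter HEK293T ER-beta-UAS cells stimulated with E2 (1nM final), 16 hr at 37C. LiveBLAzer B/G FRET substrate, 2 hours room temperature, fluorescence read-out.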

[7] = qHTS assay to identify small molecule antagonists of the estrogen receptor beta (ER-beta) signaling pathway - cell viability counter screen (AID 1259382); note: nearly all actives have a fitted effect of over 55% in size
Outline: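 Luminescent ATP read-out (CellTiter-Glo, 30 min, RT) taken in the same wells as the bla reporter assay. HEK293T ER-beta-UAS-bla cells in 2% charcoal-stripped FBS were exposed to compounds with 1nM E2 for 16 hr at 37C.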

[8] = molecular target: Thyrotropin receptor (Homo sapiens) (UniProt P16473); test: qHTS assay to identify small molecule antagonists of the thyroid stimulating hormone receptor (TSHR) signaling pathway (AID 1259385; calls by dose curve; note: nearly all actives have a fitted effect of over 20% in size); conditions: TSHR-HEK293 cAMP HTRF, TSH-stimulated antagonist mode; activity change, negative = inhibition: at 92.4 µM (top of the series) unless noted
Outline: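 Antagonist mode: compound-treated TSHR-expressing HEK293 cells were stimulated with 1.5 ng/mL TSH (final) in presence of Ro20-1724 for 30 min at RT. HTRF cAMP detection after 1 h; each compound tested at 15 concentrations, triplicate.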

[9] = molecular target: Estrogen receptor (Homo sapiens) (UniProt P03372); test: qHTS assay to identify small molecule antagonists of the estrogen receptor alpha (ER-alpha) signaling pathway using the BG1 cell line in the presence of 0.1 nM 17-beta-estradiol (AID 1259244); note: nearly all actives have a fitted effect of over 50% in size
Outline: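 Luminescence after ONE-Glo (30 min, room temperature) measured ERE-luciferase activity in VM7Luc4E2 cells treated 22 h with compound and 0.1 nM final 17beta-estradiol as stimulator.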

[10] = qHTS assay to identify small molecule antagonists of the sonic hedgehog signaling (Shh) pathway (AID 1259369; calls by dose curve; note: nearly all actives have a fitted effect of over 45% in size)
Outline: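 Luminescence readout: firefly Luc under Gli1 response element in 3T3Gli1-Luc cells (NIH/3T3 clone). Antagonist mode, stimulation by conditioned medium; compound exposure 24hr at 37 C, 5% CO2.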

[11] = molecular target: Estrogen receptor (Homo sapiens) (UniProt P03372); test: qHTS assay to identify small molecule agonists of the estrogen receptor alpha (ER-alpha) signaling pathway in the presence of an antagonist (AID 1259383; calls by dose curve; note: nearly all actives have a fitted effect of over 15% in size)
Outline: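 Luciferase luminescence (ONE-Glo, 30min at room temperature) measured in VM7Luc4E2 cells after 22hr compound exposure at 15 concentrations, with 10.0nM ICI-182,780 final present; cells express endogenous ER-alpha and carry four EREs upstream of luciferase.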

[12] = qHTS assay to identify small molecule HDAC inhibitors (AID 1259364);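 note: wild-type HCT-116 cells with endogenous class I/II HDAC activity; nearly all actives have a fitted effect of over 45% in size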
Outline: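 HCT-116 (wild type), 1,500 cells/well, overnight; compound 2 hr 37C 5% CO2; HDAC-Glo I/II reagent 30 min RT; luminescence readout.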

[13] = qHTS assay to identify small molecule agonists of the androgen receptor (AR) signaling pathway in the presence of an antagonist - cell viability counter screen (AID 1259379); note: nearly all actives have a fitted effect of over 25% in size
Outline: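 Viability counter screen: CellTiter-Fluor fluorescence, measured in the same wells as the luciferase read-out. MDA-kb2 cells, 3,000/well, with nilutamide at 3.0uM final and compounds at 15 concentrations, 16 hr at 37C, 0% CO2.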

[14] = qHTS assay to identify small molecule agonists of the estrogen receptor beta (ER-beta) signaling pathway - cell viability counter screen (AID 1259380); note: nearly all actives have a fitted effect of over 30% in size
Outline: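 Luminescence read-out (CellTiter-Glo, 30 min, room temp) taken in the same wells as the beta-lactamase reporter assay; ER-beta-UAS-bla HEK293T cells exposed to DMSO-dissolved compounds for 16 hr at 37C in 2% charcoal-stripped FBS medium.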

[15] = qHTS assay to identify small molecule agonists of the sonic hedgehog signaling (Shh) pathway - cell viability counter screen (AID 1259366); note: nearly all actives have a fitted effect of over 50% in size
Outline: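 Same-well cytotoxicity read. Gli1-Luc reporter 3T3 cells; compounds 24hr, 37C/5% CO2; CellTiter-Fluor fluorescence.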

[16] = qHTS assay to identify small molecule agonists of the estrogen receptor alpha (ER-alpha) signaling pathway in the presence of an antagonist - cell viability counter screen (AID 1259386);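 note: cells exposed to compounds for 22 h at 37 °C before the viability read; nearly all actives have a fitted effect of over 30% in size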
Outline: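 Read-out: CellTiter-Fluor fluorescence after 1hr reagent incubation, measured in the same wells as the luciferase readout. VM7Luc4E2 cells were exposed to 15 compound concentrations with 10.0nM ICI-182,780 for 22hr at 37C.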
Potency is the fitted concentration of half-maximal effect; tags give direction and shape of the fitted curve or compound fluorescence and quenching.

Chain of UniProt P03372 (P03372 whole entry, looked up): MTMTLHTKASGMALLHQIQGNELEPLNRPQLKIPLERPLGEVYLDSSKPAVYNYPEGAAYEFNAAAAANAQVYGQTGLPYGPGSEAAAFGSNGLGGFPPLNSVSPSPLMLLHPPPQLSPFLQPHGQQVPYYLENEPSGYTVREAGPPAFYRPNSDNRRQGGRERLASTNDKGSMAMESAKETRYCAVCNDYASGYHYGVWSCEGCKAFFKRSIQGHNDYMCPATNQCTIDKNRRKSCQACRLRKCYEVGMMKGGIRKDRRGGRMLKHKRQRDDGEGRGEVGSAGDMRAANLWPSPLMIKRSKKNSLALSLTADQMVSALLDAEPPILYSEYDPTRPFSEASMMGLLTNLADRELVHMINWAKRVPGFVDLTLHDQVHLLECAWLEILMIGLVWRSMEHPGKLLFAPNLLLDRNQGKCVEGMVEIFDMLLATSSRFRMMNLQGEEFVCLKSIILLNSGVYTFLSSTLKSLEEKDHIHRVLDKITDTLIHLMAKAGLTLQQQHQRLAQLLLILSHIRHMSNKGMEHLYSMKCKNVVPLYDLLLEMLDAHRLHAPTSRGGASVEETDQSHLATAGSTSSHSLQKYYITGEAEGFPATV
Chain of UniProt P16473 (P16473 whole entry, looked up): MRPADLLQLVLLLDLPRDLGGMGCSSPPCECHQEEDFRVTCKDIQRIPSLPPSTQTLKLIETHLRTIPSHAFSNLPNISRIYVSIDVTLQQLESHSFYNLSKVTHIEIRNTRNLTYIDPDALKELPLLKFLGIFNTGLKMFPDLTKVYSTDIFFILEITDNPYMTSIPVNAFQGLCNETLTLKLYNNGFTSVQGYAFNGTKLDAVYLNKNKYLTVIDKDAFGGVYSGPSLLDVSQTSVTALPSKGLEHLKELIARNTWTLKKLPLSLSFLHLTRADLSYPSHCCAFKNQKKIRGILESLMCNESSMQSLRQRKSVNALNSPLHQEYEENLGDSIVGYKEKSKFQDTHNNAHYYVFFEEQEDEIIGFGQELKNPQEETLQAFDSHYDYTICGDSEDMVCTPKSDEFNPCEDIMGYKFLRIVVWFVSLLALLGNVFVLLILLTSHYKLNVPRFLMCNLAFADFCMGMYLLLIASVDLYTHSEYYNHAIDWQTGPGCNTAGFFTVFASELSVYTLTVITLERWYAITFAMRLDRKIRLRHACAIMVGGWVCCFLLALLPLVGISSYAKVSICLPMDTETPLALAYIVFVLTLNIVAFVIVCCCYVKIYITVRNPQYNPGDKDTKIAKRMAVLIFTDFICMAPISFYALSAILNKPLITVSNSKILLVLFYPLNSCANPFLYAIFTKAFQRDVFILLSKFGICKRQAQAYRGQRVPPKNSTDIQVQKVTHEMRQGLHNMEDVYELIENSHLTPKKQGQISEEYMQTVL
Chain of UniProt Q92731 (Q92731 whole entry, looked up): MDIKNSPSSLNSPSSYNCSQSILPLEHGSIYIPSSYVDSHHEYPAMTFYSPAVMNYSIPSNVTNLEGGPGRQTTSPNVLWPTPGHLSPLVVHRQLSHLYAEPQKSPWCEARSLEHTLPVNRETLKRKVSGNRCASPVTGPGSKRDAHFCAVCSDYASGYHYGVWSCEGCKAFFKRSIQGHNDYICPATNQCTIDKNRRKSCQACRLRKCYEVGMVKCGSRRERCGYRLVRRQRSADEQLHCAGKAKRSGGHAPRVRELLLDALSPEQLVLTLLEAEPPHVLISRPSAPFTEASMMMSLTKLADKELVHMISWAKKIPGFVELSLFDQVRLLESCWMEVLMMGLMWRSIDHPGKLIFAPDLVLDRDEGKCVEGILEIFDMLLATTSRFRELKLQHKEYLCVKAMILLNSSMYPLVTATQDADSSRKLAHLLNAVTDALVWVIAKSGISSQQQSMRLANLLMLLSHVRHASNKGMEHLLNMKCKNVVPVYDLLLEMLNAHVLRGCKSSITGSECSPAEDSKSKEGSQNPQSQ

In the case of `CC(=O)N1CCN(c2ccc(OC[C@H]3CO[C@](Cn4ccnc4)(c4ccc(Cl)cc4Cl)O3)cc2)CC1`, the Potency [1] is reported as active: 61.1 µM, the Potency [2] is reported as inconclusive: 12.6 µM [activator, partial curve, poor fit] and the Potency [3] is reported as inconclusive: 68.6 µM [cytotoxic, partial curve, poor fit]. For the same compound, the Potency [4] was active: 27.3 µM, the Potency [5] was inconclusive: 21.7 µM [falling, full curve, poor fit] and the Potency [6] was active: 21.7 µM. The Potency [7] was active: 30.6 µM and the Potency [8] was inconclusive: 68.6 µM [falling, single point].
With `CCCCCCCCOC(=O)c1ccc(O)cc1` the Potency [1] was inconclusive: 68.6 µM [cytotoxic, single point], the Potency [9] was inconclusive: 68.6 µM [inhibitor, single point] and the Potency [10] was inconclusive: 38.5 µM [inhibitor, full curve, poor fit] and inconclusive: 68.6 µM [inhibitor, single point]. The Potency [5] was inconclusive: 76.7 µM [falling, single point], the Potency [7] was active: 43.1 µM and inconclusive: 27.3 µM [cytotoxic, single point] and the Potency [11] was inconclusive: 54.3 µM [activator, partial curve]. The Potency [8] was inconclusive: 68.4 µM [falling, partial curve, poor fit].
With `O=c1[nH]sc2ccccc12` the Potency [1] was inconclusive: 61.1 µM [cytotoxic, single point], the Potency [12] was inconclusive: 61.1 µM [inhibitor, partial curve, poor fit] and the Potency [4] was active: 17.2 µM. For the same compound, the Potency [6] was inconclusive: 21.7 µM [rising, partial curve], the Potency [13] was inconclusive: 68.6 µM [cytotoxic] and the Potency [14] was active: 19.3 µM. The Potency [7] was active: 27.3 µM and the Potency [8] was active: 68.6 µM.
For `CC[C@H]1O[C@]2(CC[C@@H]1C)C[C@@H]1C[C@@H](C/C=C(\C)C[C@@H](C)/C=C/C=C3\CO[C@@H]4[C@H](O)C(C)=C[C@@H](C(=O)O1)[C@]34O)O2`, the Potency [1] was inconclusive: 60.6 µM [cytotoxic], the Potency [9] was inconclusive: 60.6 µM [inhibitor, partial curve, poor fit] and the Potency [15] was inconclusive: 68 µM [cytotoxic, single point]. The Potency [5] was inconclusive: 30.4 µM [falling, partial curve], the Potency [6] was inconclusive: 68 µM [inhibitor, single point] and the Potency [14] was active: 24.1 µM. The Potency [7] was inconclusive: 68 µM [cytotoxic, single point] and the Potency [16] was active: 68 µM.
In the case of `CC(C)(C)c1ccc(C(=O)CCCN2CCC(OC(c3ccccc3)c3ccccc3)CC2)cc1`, the Potency [1] is reported as active: 21.1 µM, the Potency [2] is reported as inconclusive: 0.447 µM [activator, partial curve, poor fit] and the Potency [15] is reported as active: 26.6 µM. For the same compound, the Potency [4] was inconclusive: 33.5 µM [cytotoxic, single point], the Potency [10] was active: 11.9 µM and the Potency [6] was active: 13.3 µM.
For `CCCCCCCCCCCCCC[P+](CCCC)(CCCC)CCCC`, the Potency [1] was active: 27.1 µM and active: 21.7 µM, the Potency [3] was active: 68.2 µM and active: 68.6 µM and the Potency [15] was inconclusive: 48.6 µM [cytotoxic]. For the same compound, the Potency [4] was active: 30.5 µM and active: 30.6 µM, the Potency [5] was inconclusive: 38.3 µM [cytotoxic, partial curve] and inconclusive: 68.6 µM [cytotoxic, single point] and the Potency [6] was inconclusive: 24.2 µM [cytotoxic] and inconclusive: 68.6 µM [cytotoxic, single point]. The Potency [14] was active: 17.1 µM and active: 27.3 µM, the Potency [7] was active: 19.2 µM and active: 24.3 µM and the Potency [8] was active: 54.2 µM and active: 48.6 µM.
In the case of `CC=O`, the Potency [1] is reported as active: 32 µM, the Potency [15] is reported as active: 28.6 µM and the activation [5] is reported as inconclusive: -9.95%. For the same compound, the Potency [6] was inconclusive: 80.5 µM [cytotoxic, single point], the Potency [7] was active: 57 µM and the Potency [16] was active: 10.1 µM.
In the case of `CCCCCCCCCCCCc1ccc(O)cc1`, the Potency [1] is reported as inconclusive: 68.6 µM [cytotoxic, single point], the Potency [15] is reported as inconclusive: 68.6 µM [cytotoxic, single point] and the Potency [4] is reported as inconclusive: 68.6 µM [cytotoxic, single point]. The Potency [6] was inconclusive: 68.6 µM [cytotoxic, single point], the Potency [13] was inconclusive: 61.1 µM [cytotoxic, single point] and the Potency [14] was active: 43.3 µM. The Potency [7] was active: 48.6 µM.
